Where “and” joins values, the source holds several entries; their conditions need not be identical. Equal values may be shown once. The whole screen tested about 94,000 compounds, of which about 6,200 (6.6%) were called active. This list was built around the results that the source calls inconclusive (neither active nor inactive); the mix of calls is not that of the screen. The call rests on the fitted dose curve; in most records, active means well fitted inhibition curve with a large enough effect; inconclusive means small, poorly fitted or top-dose-only effect; inactive means flat fitted curve, though single readings scatter. Potencies of inconclusive entries are doubtful fits and often do not repeat.
Assay: Cytotoxic Profiling in HEK 293 Cell Line of Diverse Libraries Using Quantitative High-Throughput Screening; further: nearly all actives have a fitted effect of over 60% in size
Details: HEK 293 viability, ATP luminescence (CellTiter-Glo), 48-72 h; activity change, negative = cytotoxicity: at 115 µM (top of the series) unless noted; series mostly up to 115 µM
In short: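 Viability of HEK 293 cells, plated at 250 cells/well, was judged by cellular ATP after compound treatment for 48 or 72 hr. Luminescence was imaged 10 min after CellTiter-Glo addition at room temperature.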
On the % scale 0 is the no-effect control and ±100 the full control effect; potency means the concentration at half of the fitted maximal effect; tags describe the fitted curve by direction and shape.

Row | Compound | Potency | activity change, negative = cytotoxicity | outcome
1 | OC(c1nc(Nc2ccc(Cl)cc2)n[nH]1)C1CC1 (stereo unspecified) | inconclusive: 89.1 µM [inhibitor, partial curve] | – | –
2 | Cc1nc2c(c(-c3ccc(Cl)cc3)n1)CCN(C(=O)c1cccc(Cl)c1)CC2 | inconclusive: 50.1 µM [inhibitor, partial curve, poor fit] | – | –
3 | COc1ccc(CN2C[C@@H](F)[C@@H](OCc3nc4ccccc4[nH]3)C2)cc1 | inconclusive: 112 µM [inhibitor, partial curve, poor fit] | – | –
4 | Cc1n[nH]c(C)c1-c1ccc(CN(C)C)cc1O | – | inactive: -2.92% | –
5 | O=C(C1CCCN1C(=O)c1ccccc1F)N1CCC(c2nc3ccncc3[nH]2)C1 (stereo unspecified) | – | inactive: -2.75% | –
6 | Cc1ccc(OCC(=O)N2CCOc3ccc(CN4CCc5ccccc5C4)cc3C2)cc1 | inconclusive: 50.1 µM [inhibitor, partial curve, poor fit] | – | –
7 | O=C1CCCCC(Cc2cccnc2)(C(=O)NCc2ccc3c(c2)OCO3)N1 (stereo unspecified) | – | inactive: -26.5% | –
8 | Cn1ccc2c(C(=O)NCc3cccnc3)nc(-c3ccccc3C#N)cc21 | – | inactive: -18% [at 172 µM] | –
9 | Cc1ccc(C)c(NC(=O)N2CCC(Oc3ncccc3C(=O)N3CCCCC3)C2)c1 (stereo unspecified) | inconclusive: 56.2 µM [inhibitor, partial curve, poor fit] | – | –
10 | Cc1ccc(C)c(C(=O)N2CCc3[nH]nc(C(=O)NCCCc4ccccc4)c3C2)c1 | inconclusive: 50.1 µM [inhibitor, partial curve, poor fit] | – | –
11 | COc1cc(NC(=O)Cn2c(C)cc3nc4n(c(=O)c32)CCCC4)cc(OC)c1 | – | inactive: -7.42% | –
12 | N#Cc1ccc(C(=O)N2CCN(C(=O)c3nnn4c3COC(c3ccc(F)cc3)C4)CC2)cc1 (stereo unspecified) | inconclusive: 50.1 µM [inhibitor, partial curve, poor fit] | – | –
13 | CN1CCC2(CC1)CCN(Cc1ccc(OCC(O)CN3CCCCC3)cc1)C2 (stereo unspecified) | inconclusive: 89.1 µM [inhibitor, single point] | – | –
14 | O=C(c1cccs1)N1CCC[C@H]1c1nc(-c2ccccc2)no1 | inconclusive: 89.1 µM [inhibitor, single point] | – | –
15 | O=C1NCCCCCCN(S(=O)(=O)c2cccc(F)c2)[C@H]2CCCC[C@@H]12 | – | inactive: -22.4% | –
16 | Cc1ccc(CN2C(=O)OC(c3cccc(NC(=O)c4cccs4)c3)C2C(=O)NCC(C)C)cc1 (stereo unspecified) | inconclusive: 22.4 µM [inhibitor, full curve, poor fit] | – | –
17 | CC(C)c1noc(-c2cccn3c(CNC(=O)c4ccc(C(C)(C)C)cc4)nnc23)n1 | inconclusive: 44.7 µM [inhibitor, partial curve, poor fit] | – | –
18 | Cn1cccc1C(=O)N1CCC(N2C(=O)C3(CCCC3)C2c2ccccc2)CC1 (stereo unspecified) | active: 44.7 µM | – | –
19 | CCn1cc(CN2C[C@@H](COc3ccccc3)[C@H](C(N)=O)C2)cn1 | – | – | inactive
20 | CN1Cc2cccn2CC1CNC(=O)c1ccnn1C (stereo unspecified) | – | inactive: 4.29% | –
21 | Cc1sc2ccn(C)c(=O)c2c1C(=O)N1CCN(c2ccc(Cl)cc2)CC1 | active: 79.4 µM | – | –
22 | Cc1noc(-c2ccc3c(c2)OCO3)c1C(=O)NCCSCc1ccco1 | inconclusive: 79.4 µM [inhibitor, partial curve, poor fit] | – | –

Row | Compound | Potency | activity change, negative = cytotoxicity | outcome
23 | CC(=O)N1CCC(N2C[C@H](O)C[C@H]2c2nc(-c3ccc4c(c3)OCO4)no2)CC1 | – | inactive: -18.8% [at 172 µM] | –
24 | Cc1ccc2cc(CCC(=O)N3CCN(c4ccccn4)CC3)c(=O)[nH]c2c1 | inconclusive: 39.8 µM [inhibitor, partial curve, poor fit] | – | –
25 | O=C(NC1CCN(c2cc(-c3cccs3)[nH]n2)C1)c1cc2ccccc2[nH]1 (stereo unspecified) | inconclusive: 56.2 µM [inhibitor, partial curve, poor fit] | – | –
26 | O=C(N[C@@H]1CN(Cc2ccc(F)cc2)C[C@H]1CO)c1cccnc1 | – | inactive: -6.69% | –
27 | CC(C)S(=O)(=O)N1CCC(N2C(=O)C3(CCCC3)C2c2ccccc2)CC1 (stereo unspecified) | inconclusive: 50.1 µM [inhibitor, partial curve, poor fit] | – | –
28 | CCCn1c(C)cnc1CC1CCN(C(=O)CC2CCCC2)C1 (stereo unspecified) | – | – | inactive
29 | Cc1ccc(-c2ccc(CN)cc2)cc1Cl | active: 31.6 µM | – | –
30 | CN1Cc2ccc(C(=O)Nc3ccccc3)cc2OCC1=O | inconclusive: 100 µM [inhibitor, partial curve] | – | –
31 | O=C(c1ccc2c(c1)OCO2)N1CCN(c2cc(-c3ccc(F)cc3)[nH]n2)CC1 | inconclusive: 56.2 µM [inhibitor, partial curve, poor fit] | – | –
32 | O=C(C[C@@H]1CCNC[C@@H]1Cc1cc(COc2ccccc2)on1)NCc1ccco1 | inconclusive: 100 µM [inhibitor, partial curve] | – | –
33 | COCCN1C(=O)c2cccn2CC1CNC(=O)Cc1c(C)noc1C (stereo unspecified) | – | inactive: 1.65% | –
34 | O=C(CCC1CCCN(Cc2cc3ccccc3s2)C1)Nc1ccccc1F (stereo unspecified) | inconclusive: 50.1 µM [inhibitor, partial curve, poor fit] | – | –
35 | O[C@H]1CC[C@@H](Cc2cc(-c3ccc(F)cc3)on2)O[C@@H]1CNCc1ccccn1 | inconclusive: 89.1 µM [inhibitor, partial curve, poor fit] | – | –
36 | CC(NC(=O)CNC(=O)c1cccc(-c2ccc(C(F)(F)F)cc2)c1)c1ccc(F)cc1 (stereo unspecified) | inconclusive: 50.1 µM [inhibitor, partial curve, poor fit] | – | –
37 | COc1ncccc1CN1CCC2(CC1)OC(=O)N(Cc1ccccc1C#N)C2(C)c1ccccc1 (stereo unspecified) | inconclusive: 39.8 µM [inhibitor, partial curve, poor fit] | – | –
38 | CCCNC(=O)N(C1CCOCC1)C1CCN(S(=O)(=O)c2cccnc2)CC1 | – | inactive: 4.45% | –
39 | O=C(Nc1ccc(Cl)cc1)NC1CCCN(CCn2nc3n(c2=O)CCCC3)C1 (stereo unspecified) | – | inactive: -4.87% | –
40 | N#Cc1ccc(CN2CC[C@H](c3nnc(Cc4ccccc4)o3)C2)cc1 | inconclusive: 100 µM [inhibitor, partial curve] | – | –
41 | O=C(Cc1ccccn1)N1CCC(N2CCCNC2=O)CC1 | inconclusive: 50.1 µM [inhibitor, partial curve, poor fit] | – | –
42 | Cc1ccccc1C(=O)NC1CCN(c2ccc3nnc(C)n3n2)C1 (stereo unspecified) | – | inactive: -11% [at 172 µM] | –
43 | CNC(=O)c1cc(C)nc2onc(C3CCCN(C(=O)C(C)(C)C)C3)c12 (stereo unspecified) | – | inactive: 2.65% | –
44 | Cc1oc(C(O)c2cccc(O)c2)nc1C(=O)Nc1ccccc1 (stereo unspecified) | inconclusive: 112 µM [inhibitor, single point] | – | –

Row | Compound | Potency | activity change, negative = cytotoxicity | outcome
45 | COc1cccc(C(=O)N2CCC(N3C[C@H](O)C[C@H]3C(=O)Nc3ccccc3OC)CC2)c1 | inconclusive: 89.1 µM [inhibitor, single point] | – | –
46 | O=C(NCc1ccc(Cl)cc1)c1c(OCC2CC2)cc(=O)n2c1CCOCC2 | – | inactive: -21.9% | –
47 | C[C@H]1CCCN1C(=O)c1nnc(COc2ccccc2F)n1-c1ccccc1 | inconclusive: 100 µM [inhibitor, partial curve, poor fit] | – | –
48 | COc1ccc(NC(=O)c2cc(C(C)(C)C)nc3c2cnn3C)cc1 | active: 63.1 µM | – | –
49 | COc1ccc(-c2nnc3ccc(N4CCc5ccccc5CC4)nn23)nc1 | inconclusive: 112 µM [inhibitor, partial curve] | – | –
50 | CCC1CN(Cc2cn(-c3ccccc3)nc2-c2ccc(OC)cc2F)CCO1 (stereo unspecified) | inconclusive: 89.1 µM [inhibitor, single point] | – | –
51 | Cc1ccc(S(=O)(=O)N2CCCN(C)c3ccccc32)c(C)c1 | inconclusive: 50.1 µM [inhibitor, partial curve, poor fit] | – | –
52 | O=C(C1CCCN1C(=O)Cc1ccc(F)cc1)N1CCC(N2Cc3ccccc3C2=O)CC1 (stereo unspecified) | – | inactive: -10.2% | –
53 | CC(C)c1cccc(NC(=O)C2CCN(C(=O)c3ncn4c3COC(c3ccccc3)C4)CC2)c1 (stereo unspecified) | inconclusive: 89.1 µM [inhibitor, single point] | – | –
54 | O=C(COc1ccccc1)NC1CCCc2c1[nH]c1ccc(F)cc21 (stereo unspecified) | inconclusive: 28.2 µM [inhibitor, full curve] | – | –
55 | COc1ccc(CNC(=O)c2ccc3c(c2)N(C(=O)c2ccc(F)cc2)CC3)c(OC)c1 | inconclusive: 50.1 µM [inhibitor, partial curve, poor fit] | – | –
56 | O=C(NC[C@H]1OC[C@@H](N(Cc2cccs2)Cc2cccs2)[C@@H]1O)c1ccccc1 | inconclusive: 100 µM [inhibitor, partial curve] | – | –
57 | Cn1nccc1-c1ccc2ncn(-c3ccccc3)c(=O)c2n1 | – | – | inactive [at 172 µM]
58 | Cc1nn(-c2ccccc2)c2c1C(C)N(C1CCN(C(=O)c3ccc(Cl)nc3)CC1)C2=O (stereo unspecified) | inconclusive: 50.1 µM [inhibitor, partial curve, poor fit] | – | –
59 | CCn1cc(-c2ccc(F)cc2)cc1C(=O)NCCOC | inconclusive: 44.7 µM [inhibitor, partial curve, poor fit] | – | –
60 | Cc1cc(N2CCC(N3CCCC(C(=O)NCCc4ccccc4)C3)CC2)ncn1 (stereo unspecified) | inconclusive: 39.8 µM [inhibitor, partial curve] | – | –
61 | CCCCOC(=O)N1CCC(=O)N(C)C[C@H]2COc3cc(OC)ccc3[C@H]21 | – | inactive: -9.81% | –
62 | O=C(C1CCCN1C(=O)Nc1ccc(Cl)cc1)N1CCC(c2ccccc2)CC1 (stereo unspecified) | inconclusive: 56.2 µM [inhibitor, partial curve, poor fit] | – | –
63 | COCCNC(=O)c1nc2sccn2c1-c1cccc(C(F)(F)F)c1 | – | inactive: 4.04% | –
64 | CC(C)CC(=O)N1CCOc2ccc(CN3CCc4ccccc4C3)cc2C1 | inconclusive: 12.6 µM [inhibitor, partial curve, poor fit] | – | –
65 | Cc1cc(-c2nc3ccncc3[nH]2)c(C)[nH]1 | inactive and inconclusive: 141 µM [inhibitor, partial curve, poor fit] | – | –
66 | COc1ccc(F)c(CN2CCCN3CCC[C@H]3C2)c1Cl | inconclusive: 50.1 µM [inhibitor, partial curve, poor fit] | – | –

— PubChem BioAssay AID1345083 (National Center for Advancing Translational Sciences (NCATS), 2018)
